# In the supplement of paper PMC8728848:
# The other results are listed elsewhere or left out.
# B1: Surfactant Protein D (rat); Neck + Carbohydrate Recognition Domain (NCRD) (Rattus norvegicus) (protein)
# chain: MLLFLLSALVLLTQPLGYLEAEMKTYSHRTMPSACTLVMCSSVESGLPGRDGRDGREGPRGEKGDPGLPGAAGQAGMPGQAGPVGPKGDNGSVGEPGPKGDTGPSGPPGPPGVPGPAGREGALGKQGNIGPQGKPGPKGEAGPKGEVGAPGMQGSAGARGAGPKGERGVPGERGVPGNTGAAGSAGAMGPQGSPGARGPPGLKGDKGIPGDKGAKGESGLPDVASLRQQVEALQGQVQHLQAAFSQYKKVELFPNGQSVGEKIFKTAGFVKPFTEAQLLCTQAGGQLASPRSAAENAALQQLVVAKNEAAFLSMTDSKTEGKFTYPTGESLVYSNWAPGEPNDDGGSEDCVEIFTNGKWNDRACGEKRLVVCEF
# Tests used:
# Test in all cases: glycan array binding signal (z-score within array); higher = stronger binding
# Settings in all cases: glycan notation: IUPAC condensed, linker removed
# [1] = molecular target: Fuc(a1-2)Gal
# Outline: (§1)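 Negative Z-scores can be read as non-binding. The Z-score is calculated within each array and then averaged across arrays of one protein sequence at different concentrations or buffers and across linkers. Arrays, 3228 in all, were curated from the Consortium for Functional Glycomics database and kept only where the protein sequence was available.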
# [2] = molecular target: Fuc(a1-2)Gal(b1-3)GalNAc
# Outline: as §1
# [3] = molecular target: Fuc(a1-2)Gal(b1-3)GalNAc(b1-3)Gal
# Outline: as §1
# [4] = molecular target: Fuc(a1-2)Gal(b1-3)GalNAc(b1-3)Gal(a1-4)Gal(b1-4)Glc
# Outline: as §1
# [5] = molecular target: Fuc(a1-2)Gal(b1-3)GalNAc(b1-4)[Neu5Ac(a2-3)]Gal(b1-4)Glc
# Outline: as §1
# [6] = molecular target: Fuc(a1-2)Gal(b1-3)GlcNAc
# Outline: as §1
# [7] = molecular target: Fuc(a1-2)Gal(b1-3)GlcNAc(b1-3)Gal(b1-4)Glc
# Outline: as §1
# [8] = molecular target: Fuc(a1-2)Gal(b1-3)[Fuc(a1-4)]GlcNAc
# Outline: as §1
# [9] = molecular target: Fuc(a1-2)Gal(b1-4)Glc
# Outline: as §1
# [10] = molecular target: Fuc(a1-2)Gal(b1-4)Glc6S
# Outline: as §1
# [11] = molecular target: Fuc(a1-2)Gal(b1-4)GlcNAc
# Outline: as §1
# [12] = molecular target: Fuc(a1-2)Gal(b1-4)GlcNAc(b1-3)Gal(b1-4)GlcNAc
# Outline: as §1
# [13] = molecular target: Fuc(a1-2)Gal(b1-4)GlcNAc(b1-3)Gal(b1-4)GlcNAc(b1-3)Gal(b1-4)GlcNAc
# Outline: as §1
# [14] = molecular target: Fuc(a1-2)Gal(b1-4)GlcNAc6S
# Outline: as §1
# [15] = molecular target: Fuc(a1-2)Gal(b1-4)[Fuc(a1-3)]GlcNAc
# Outline: as §1
# [16] = molecular target: Fuc(a1-2)Gal(b1-4)[Fuc(a1-3)]GlcNAc(b1-3)Gal(b1-4)[Fuc(a1-3)]GlcNAc
# Outline: as §1
# [17] = molecular target: Fuc(a1-2)Gal(b1-4)[Fuc(a1-3)]GlcNAc(b1-3)Gal(b1-4)[Fuc(a1-3)]GlcNAc(b1-3)Gal(b1-4)[Fuc(a1-3)]GlcNAc
# Outline: as §1
# [18] = molecular target: Fuc(a1-2)Gal6S(b1-4)Glc
# Outline: as §1
# [19] = molecular target: Fuc(a1-2)Gal6S(b1-4)Glc6S
# Outline: as §1
# [20] = molecular target: Fuc(a1-2)Gal6S(b1-4)GlcNAc
# Outline: as §1
# [21] = molecular target: Fuc(a1-2)[Gal(a1-3)]Gal
# Outline: as §1
# [22] = molecular target: Fuc(a1-2)[Gal(a1-3)]Gal(b1-3)GlcNAc
# Outline: as §1
# [23] = molecular target: Fuc(a1-2)[Gal(a1-3)]Gal(b1-4)Glc
# Outline: as §1
# [24] = molecular target: Fuc(a1-2)[Gal(a1-3)]Gal(b1-4)GlcNAc
# Outline: as §1
# [25] = molecular target: Fuc(a1-2)[Gal(a1-3)]Gal(b1-4)[Fuc(a1-3)]GlcNAc
# Outline: as §1
# [26] = molecular target: Fuc(a1-2)[Gal(a1-4)]Gal(b1-4)GlcNAc
# Outline: as §1
# [27] = molecular target: Fuc(a1-2)[GalNAc(a1-3)]Gal
# Outline: as §1
# [28] = molecular target: Fuc(a1-2)[GalNAc(a1-3)]Gal(b1-3)GlcNAc
# Outline: as §1
# [29] = molecular target: Fuc(a1-2)[GalNAc(a1-3)]Gal(b1-4)Glc
# Outline: as §1
# [30] = molecular target: Fuc(a1-2)[GalNAc(a1-3)]Gal(b1-4)GlcNAc
# Outline: as §1
# [31] = molecular target: Fuc(a1-2)[GalNAc(a1-3)]Gal(b1-4)[Fuc(a1-3)]GlcNAc
# Outline: as §1
# [32] = molecular target: Fuc(a1-2)[GalNAc(a1-4)]Gal(b1-4)GlcNAc
# Outline: as §1
# [33] = molecular target: Fuc(a1-2)[GalNAc(b1-3)]Gal
# Outline: as §1
# [34] = molecular target: Fuc(a1-3)GlcNAc
# Outline: as §1
# [35] = molecular target: Fuc(a1-3)[Gal(b1-4)]Glc6S
# Outline: as §1
# [36] = molecular target: Fuc(a1-3)[Gal(b1-4)]GlcNAc
# Outline: as §1
# [37] = molecular target: Fuc(a1-3)[Gal(b1-4)]GlcNAc(b1-2)Man(a1-3)[Fuc(a1-3)[Gal(b1-4)]GlcNAc(b1-2)Man(a1-6)]Man(b1-4)GlcNAc(b1-4)GlcNAc
# Outline: as §1
binder,measurement,setting,value
B1,glycan array binding signal (z-score),[1],-0.204
same,glycan array binding signal (z-score),[2],-0.177
same,glycan array binding signal (z-score),[3],-0.118
same,glycan array binding signal (z-score),[4],-0.181
same,glycan array binding signal (z-score),[5],-0.142
same,glycan array binding signal (z-score),[6],-0.13
same,glycan array binding signal (z-score),[7],-0.215
same,glycan array binding signal (z-score),[8],-0.177
same,glycan array binding signal (z-score),[9],-0.073
same,glycan array binding signal (z-score),[10],-0.204
same,glycan array binding signal (z-score),[11],-0.173
same,glycan array binding signal (z-score),[12],-0.183
same,glycan array binding signal (z-score),[13],-0.149
same,glycan array binding signal (z-score),[14],0.018
same,glycan array binding signal (z-score),[15],-0.203
same,glycan array binding signal (z-score),[16],-0.151
same,glycan array binding signal (z-score),[17],-0.129
same,glycan array binding signal (z-score),[18],-0.243
same,glycan array binding signal (z-score),[19],-0.148
same,glycan array binding signal (z-score),[20],-0.067
same,glycan array binding signal (z-score),[21],-0.22
same,glycan array binding signal (z-score),[22],-0.19
same,glycan array binding signal (z-score),[23],-0.234
same,glycan array binding signal (z-score),[24],-0.206
same,glycan array binding signal (z-score),[25],-0.205
same,glycan array binding signal (z-score),[26],-0.095
same,glycan array binding signal (z-score),[27],-0.221
same,glycan array binding signal (z-score),[28],-0.109
same,glycan array binding signal (z-score),[29],-0.212
same,glycan array binding signal (z-score),[30],-0.184
same,glycan array binding signal (z-score),[31],-0.192
same,glycan array binding signal (z-score),[32],-0.26
same,glycan array binding signal (z-score),[33],-0.245
same,glycan array binding signal (z-score),[34],-0.127
same,glycan array binding signal (z-score),[35],-0.019
same,glycan array binding signal (z-score),[36],-0.113
same,glycan array binding signal (z-score),[37],-0.166
